B1: ftsW V201D (protein)
chain: MRLSLPRLKMPRLPGFSILVWISTALKGWVMGSREKDTDSLIMYDRTLLWLTFGLAAIGFIMVTSASMPIGQRLTNDPFFFAKRDGVYLILAFILAIITLRLPMEFWQRYSATMLLGSIILLMIVLVVGSSVKGASRWIDLGLLRIQPAELTKLSLFCYIANYLVRKGDEVRNNLRGFLKPMGVILVLAVLLLAQPDLGTDVVLFVTTLAMLFLAGAKLWQFIAIIGMGISAVVLLILAEPYRIRRVTAFWNPWEDPFGSGYQLTQSLMAFGRGELWGQGLGNSVQKLEYLPEAHTDFIFAIIGEELGYVGVVLALLMVFFVAFRAMSIGRKALEIDHRFSGFLACSIGIWFSFQALVNVGAAAGMLPTKGLTLPLISYGGSSLLIMSTAIMMLLRIDYETRLEKAQAFVRGSR
B2: ftsW I223A (protein)
chain: B1 chain with D201V, I223A
B3: ftsW L238D (protein)
chain: B1 chain with D201V, L238D
B4: ftsW L238A (protein)
chain: B1 chain with D201V, L238A
B5: ftsW L238W (protein)
chain: B1 chain with D201V, L238W
B6: ftsW V201P (protein)
chain: B1 chain with D201P
B7: ftsW F300P (protein)
chain: B1 chain with D201V, F300P
B8: ftsW F300A (protein)
chain: B1 chain with D201V, F300A
B9: argC V75P (protein)
chain: MLNTLIVGASGYAGAELVTYVNRHPHMNITALTVSAQSNDAGKLISDLHPQLKGIVDLPLQPMSDISEFSPGVDPVFLATAHEVSHDLAPQFLEAGCVVFDLSGAFRVNDATFYEKYYGFTHQYPELLEQAAYGLAEWCGNKLKEANLIAVPGCYPTAAQLALKPLIDADLLDLNQWPVINATSGVSGAGRKAAISNSFCEVSLQPYGVFTHRHQPEIATHLGADVIFTPHLGNFPRGILETITCRLKSGVTQAQVAQVLQQAYAHKPLVRLYDKGVPALKNVVGLPFCDIGFAVQGEHLIIVATEDNLLKGAAAQAVQCANIRFGYAETQSLI
B10: argC F77A (protein)
chain: B9 chain with P75V, F77A
B11: argC F77W (protein)
chain: B9 chain with P75V, F77W
B12: ftsY I400A (protein)
chain: MAKEKKRGFFSWLGFGQKEQTPEKETEVQNEQPVVEEIVQAQEPVKASEQAVEEQPQAHTEAEAETFAADVVEVTEQVAESEKAQPEAEVVAQPEPVVEETPEPVAIEREELPLPEDVNAEAVSPEEWQAEAETVEIVEAAEEEAAKEEITDEELETALAAEAAEEAVMVVPPAEEEQPVEEIAQEQEKPTKEGFFARLKRSLLKTKENLGSGFISLFRGKKIDDDLFEELEEQLLIADVGVETTRKIITNLTEGASRKQLRDAEALYGLLKEEMGEILAKVDEPLNVEGKAPFVILMVGVNGVGKTTTIGKLARQFEQQGKSVMLAAGDTFRAAAVEQLQVWGQRNNIPVIAQHTGADSASVIFDAIQAAKARNIDVLIADTAGRLQNKSHLMEELKKAVRVMKKLDVEAPHEVMLTIDASTGQNAVSQAKLFHEAVGLTGITLTKLDGTAKGGVIFSVADQFGIPIRYIGVGERIEDLRPFKADDFIEALFARED

Numbering of substitutions follows the chain as printed. Names may count otherwise. ± gives the standard deviation of the averaged measurements. Laboratory Escherichia coli strains with one amino-acid change in an essential protein, pooled on minimal glucose agar with carbenicillin or gentamicin at twice the control MIC (plus kanamycin and chloramphenicol for the plasmids), 48 h. Fold change of barcode share against drug-free plates; higher = less susceptible. Active = above 20 in both replicates (the paper's putatively resistant). '<' = one read or none on drug, '>' = one read or none on a drug-free plate. Shares are relative, so most strains fall below 1 when a few take over. Listed are strains with at least 15 reads on both drug-free plates, and hits; most hits rest on fewer reference reads. Replicate rank correlation about 0.5. Edits are read from barcodes.

In one data set the target is Escherichia coli (laboratory strain). Description: barcode share on antibiotic plates over drug-free plates; higher = less susceptible. The following applies: antibiotic: carbenicillin; 2× MIC (3.1 µg/mL). On the procedure: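 A pool of E. coli strains, each edited to carry one amino-acid change in an essential protein, was grown for 48 h on minimal glucose agar with or without antibiotic; strain barcodes were sequenced; mean of two replicates.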
With B1, the “fold change of barcode share” value came out at 0.266 ± 0.066.
Consider B2, for which the “fold change of barcode share” value is 0.327 ± 0.11.
Still for that read-out and setting: in the case of B3 it was 0.211 ± 0.062; in that of B4, 0.278 ± 0.06; in that of B5, 0.276 ± 0.013.
On the same count and under the same terms, in the case of B6 it was 0.491 ± 0.042; in that of B7, 0.0757 ± 0.012; in that of B8, 0.195 ± 0.048.
As for B9, the “fold change of barcode share” value is 0.274 ± 0.12.
Still for that read-out and setting: in the case of B10 it was 0.923 ± 0.72; in that of B11, 1.51 ± 0.9.
Still for that read-out and setting: in the case of B12 it was 0.336 ± 0.066.

Still in this data set, the particulars now being: antibiotic: gentamicin; 2× MIC (MIC 0.45 µg/mL).
B1: the “fold change of barcode share” value was found to be 0.00466 ± 0.0011.
Still for that read-out and setting: for B2 the value was below 0.0156; for B6, 0.00723 ± 0.001; for B7, below 0.0126.
On the same count and under the same terms, in the case of B8 it was below 0.0105; in that of B9, 0.0238 ± 0.018; in that of B11, 0.0273 ± 0.014.
Still for that read-out and setting: for B12 the value was below 0.0103.

The values are drawn from the supplement of paper PMC11876631.
